These results are taken from the supplement of paper PMC3334620.

Whole data set: some 33,000 sequences, median “E-score (-0.5 to 0.5)” near -0.035, cut for the highest 2% near 0.35. This is one part of the list.

The test has as its target T1, Pdr3 (UniProt P33200).
T1 sequence: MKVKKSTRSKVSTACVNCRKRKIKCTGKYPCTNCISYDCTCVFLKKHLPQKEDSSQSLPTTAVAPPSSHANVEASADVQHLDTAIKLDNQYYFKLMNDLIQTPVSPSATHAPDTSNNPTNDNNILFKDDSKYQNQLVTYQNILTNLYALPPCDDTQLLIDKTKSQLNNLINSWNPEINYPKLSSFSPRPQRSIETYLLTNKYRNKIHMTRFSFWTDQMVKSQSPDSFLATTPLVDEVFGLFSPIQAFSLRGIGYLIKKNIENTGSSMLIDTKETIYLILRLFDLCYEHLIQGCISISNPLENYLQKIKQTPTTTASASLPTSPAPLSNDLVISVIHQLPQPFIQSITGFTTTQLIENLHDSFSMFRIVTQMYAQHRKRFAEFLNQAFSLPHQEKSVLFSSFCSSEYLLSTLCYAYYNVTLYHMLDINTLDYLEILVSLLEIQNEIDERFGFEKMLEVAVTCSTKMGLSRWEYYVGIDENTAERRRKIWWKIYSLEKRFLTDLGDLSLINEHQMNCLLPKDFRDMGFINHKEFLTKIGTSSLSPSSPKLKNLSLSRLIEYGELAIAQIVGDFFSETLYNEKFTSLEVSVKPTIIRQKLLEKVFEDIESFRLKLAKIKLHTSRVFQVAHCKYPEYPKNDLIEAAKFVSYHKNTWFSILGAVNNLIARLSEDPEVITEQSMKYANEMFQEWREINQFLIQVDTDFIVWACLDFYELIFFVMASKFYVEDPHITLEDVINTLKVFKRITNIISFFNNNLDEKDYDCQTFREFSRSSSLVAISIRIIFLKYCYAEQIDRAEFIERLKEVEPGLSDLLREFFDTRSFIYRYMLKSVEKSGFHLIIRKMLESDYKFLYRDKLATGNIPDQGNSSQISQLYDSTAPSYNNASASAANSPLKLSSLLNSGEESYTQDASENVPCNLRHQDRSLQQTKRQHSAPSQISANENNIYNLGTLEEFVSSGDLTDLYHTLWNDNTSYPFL
Briefly: PBM E-score (8-mer binding enrichment) (E-score (-0.5 to 0.5)); higher = stronger / more preferred TF binding; most listed sequences are background and not binding sites. As to conditions: protein concentration: 200 nM; construct: GST-full length. In short, it runs like this: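 Universal all-10-mer Agilent arrays, fresh or stripped once, were converted to double-stranded form by primer extension. GST-tagged yeast transcription factors from PURExpress in vitro transcription/translation, full-length or DNA-binding domain only, were applied at about 100-200 nM and detected with fluorescent anti-GST. After masliner normalisation, the Universal PBM Analysis Suite scored each ungapped eight-base word together with its reverse complement by E-score.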
Turning to ACCACATA, the “PBM E-score” value was -0.0748. As for ACGCATCG, the figure is -0.13; as for GCAGTTAA, 0.0152. For TCCTACCA, the “PBM E-score” value is -0.135. The result for ATTCCTTG reads -0.0356; that for GAAGGAAA, -0.00233.

On to TGAGGGCA, for which the “PBM E-score” value was -0.064. Take GGGTCAAC: the “PBM E-score” value turned out to be 0.203. With ACATCTAC, the “PBM E-score” value is 0.0404.

In the case of GGGTTCGA, the “PBM E-score” value was -0.0225. As for AGCCGCAC, the figure is 0.0341; as for AACGTCAG, -0.241; as for CATCGTTC, -0.0901. For AACGCTGT, the “PBM E-score” value was -0.137.

On to AATATCCC, for which the “PBM E-score” value turned out to be 0.215. As for ATTAGGGC, the figure is -0.0874; as for CAAATGCG, 0.0429; as for ATTGAACC, -0.0416. Turning to CAGAGTTC, the “PBM E-score” value is -0.0462. For the sequence CCCGCTAG, the “PBM E-score” value came out at 0.0933.

With GCTAAAAC, the “PBM E-score” value is -0.113. With CGCCTCAC, the “PBM E-score” value was found to be 0.152. As for GAACTTCA, the “PBM E-score” value is -0.0972. The result for GGTGTCAA reads -0.0313; that for AGTGCCGA, 0.138. In the case of GAGATAGC, the “PBM E-score” value was -0.109. As for GAATTTCA, the figure is -0.0569.

For the sequence CTCATTGC, the “PBM E-score” value is -0.0175. Regarding CCAGGCAC, the “PBM E-score” value is -0.0183. For the sequence CCCTCTCG, the “PBM E-score” value was -0.125.

On to CAACCAAC, for which the “PBM E-score” value is -0.00416. As for TTCGGAAA, the figure is 0.391; as for ATTAGATA, -0.0766; as for AGCCTCCA, -0.164. Turning to CTAGCCTA, the “PBM E-score” value is -0.105. In the case of CCTGACGA, the “PBM E-score” value is -0.0795. Turning to CGCCCTTC, the “PBM E-score” value is -0.0257. The result for AGGACGGG reads 0.0362; that for TAGCGTAA, 0.0306.

As for CTCTGCGC, the “PBM E-score” value came out at 0.0675. As for AGTATTGC, the figure is -0.0115; as for GGTACAAC, -0.0241. As for ACTGATTG, the figure is -0.196; as for AACCTATT, -0.0855; as for AGGGAACG, -0.0864.

Take CCCTAAGA: the “PBM E-score” value was -0.243. As for CCAAGACC, the “PBM E-score” value was -0.103. As for ATCGTTCA, the “PBM E-score” value was -0.155. For AGATATAA, the “PBM E-score” value came to 0.0365. As for CTTTTTCA, the figure is -0.211; as for CTAAAGAC, -0.191.

In the case of GGCCTAAC, the “PBM E-score” value is 0.00244. Turning to CAACTGCC, the “PBM E-score” value amounted to 0.0196.

As for GCTAGGGA, the “PBM E-score” value is -0.123.

In the case of ATCCACCC, the “PBM E-score” value was 0.0371. On to TCAGTGAA, for which the “PBM E-score” value was -0.055. Consider ACCTGGCG, for which the “PBM E-score” value was -0.0867.

On to CCATGATC, for which the “PBM E-score” value is -0.115.

Take AAAAATCC: the “PBM E-score” value was found to be 0.103. With GATCCAGC, the “PBM E-score” value amounted to 0.0828. For ATTCTGGC, the “PBM E-score” value is -0.176. The result for AAAGAAAC reads 0.0186; that for AGCTATAA, -0.181. As for CGGGGAAG, the figure is 0.23. ATGAGCAC: the “PBM E-score” value is -0.164. Regarding ACGTGAAG, the “PBM E-score” value is -0.237. The result for CCACGTAC reads -0.206. As for CAGCGAGA, the figure is -0.027; as for ACCTACTA, -0.138; as for TTACCGAA, 0.105. As for TGATATCA, the figure is -0.267.

With ATTATGCG, the “PBM E-score” value came out at 0.233.

For the sequence ATAGGATC, the “PBM E-score” value was -0.128. For the sequence ACTGTGAG, the “PBM E-score” value was -0.0549. As for CTATCACA, the figure is -0.116. As for GCTTACCA, the figure is -0.0565; as for CAAACCTA, -0.09.

Take AGCATTCC: the “PBM E-score” value came to 0.238. The result for CTTTTTTA reads -0.0672; that for CAACATAG, -0.144; that for CTCAAATC, -0.145. The result for AACCAAAG reads -0.149. As for CCACGGCC, the figure is 0.0766; as for CCAGGGGG, -0.205. For CCGGGGTA, the “PBM E-score” value came to 0.341.

For AATGTGGG, the “PBM E-score” value is -0.0168. With ACTGGCCC, the “PBM E-score” value was 0.0736. Consider GCGAACAA, for which the “PBM E-score” value was 0.254. For the sequence GCGTCTCA, the “PBM E-score” value was -0.177. The result for ACCGCCCA reads 0.0538.

As to AAGAGACA, the “PBM E-score” value amounted to 0.0812. With AACAGGGC, the “PBM E-score” value is -0.116. The result for AATGAGAC reads -0.132. As to TCAACCAA, the “PBM E-score” value was -0.013.
